In the supplement of paper PMC4604168 (melanoma cell lines):
This is one part of the list. Repeats are few or missing, and single values can be far off.

tested on: SkMel2; assay: cell count relative to DMSO control; melanoma cells; higher = more viable cells; details: library dose: standard library concentration; 72 h
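Also: cells treated in 1,536-well plates, then fixed and DAPI-stained, with nuclei counted from automated high-throughput microscope images.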

Row | Compound | cell count [%]
1 | NC(=O)c1ccc(N(C(N)=O)c2c(F)cccc2F)nc1-c1ccc(F)cc1F + O=C(Nc1ccccc1)c1cc([N+](=O)[O-])ccc1Cl [GW9662] (first compound 2 µM, partner dose 10 µM) | 77.3
2 | CCCCCCCCc1ccc(CCC(N)(CO)CO)cc1 [fingolimod] + N#Cc1c(O)c2c(-c3ccc(-c4ccccc4O)cc3)csc2[nH]c1=O [A769662] (first compound 10 µM, partner dose 10 µM) | 0.276
3 | CCCCCCCCc1ccc(CCC(N)(CO)CO)cc1 [fingolimod] + CC(C)CCN1c2nc(Nc3cc(F)c(O)c(F)c3)ncc2N(C)C(=O)C1C [BID1870] (first compound 10 µM, partner dose 1 µM) | 61.7
4 | NC(=O)c1ccc(N(C(N)=O)c2c(F)cccc2F)nc1-c1ccc(F)cc1F + N#Cc1c(O)c2c(-c3ccc(-c4ccccc4O)cc3)csc2[nH]c1=O [A769662] (first compound 2 µM, partner dose 10 µM) | 105
5 | CCCCCCCCc1ccc(CCC(N)(CO)CO)cc1 [fingolimod] + O=C(O)c1ccc(-c2c[nH]c3ncc(-c4ccccc4)cc23)cc1C1CCCC1 [GSK650394] (first compound 10 µM, partner dose 0.8 µM) | 0.687
6 | CCCCCCCCc1ccc(CCC(N)(CO)CO)cc1 [fingolimod] + CCN(CC)CCCCNc1ncc2cc(-c3cc(OC)cc(OC)c3)c(NC(=O)NC(C)(C)C)nc2n1 [PD173074] (first compound 10 µM, partner dose 0.5 µM) | 28.2
